Experiments:
[1] = target: Cyclin-dependent kinase 1/cyclin B (Homo sapiens, UniProt O95067+P06493+P14635+Q8WWL7); assay type: cell-based, Marthasterias glacialis, Oocyte
[2] = target: Cyclin-dependent kinase 5/CDK5 activator 1 (Homo sapiens, UniProt Q00535); assay type: protein-complex assay

Row | Structure (SMILES) | IC50 [1] [nM] | IC50 [2] [nM]
1 | O=C1Cc2c([nH]c3ccc(Br)cc23)-c2ccc(O)cc2N1 | 600 | 830
2 | COc1ccc2c(c1)-c1[nH]c3ccc([N+](=O)[O-])cc3c1CC(=O)N2 | 80 | 70
3 | O=C1Cc2c([nH]c3ccccc23)-c2cc(I)ccc2N1 | 3700 | 
4 | NCC(=O)c1ccc2[nH]c3c(c2c1)CC(=O)Nc1ccccc1-3 |  | 5500
5 | O=C1Cc2c([nH]c3cc(Cl)cc(Cl)c23)-c2ccccc2N1 | 2500 | 
6 | N#Cc1ccc2c(c1)-c1[nH]c3ccccc3c1CC(=O)N2 | 3300 | 450000
7 | NCCCCOc1ccc2c(c1)NC(=O)Cc1c-2[nH]c2ccc(Br)cc12 | 700 | 420000
8 | CC(C)(C)OC(=O)n1c2c(c3cc(Br)ccc31)CC(=O)Nc1ccccc1-2 | 70000 | 
9 | C=C(C)n1c2c(c3cc(Br)ccc31)CC(=O)Nc1ccccc1-2 | 60000 | 
10 | COc1ccc2c(c1)NC(=O)Cc1c-2[nH]c2ccc(C#N)cc12 | 1200 | 1000
11 | COc1ccc2c(c1)NC(=O)Cc1c-2[nH]c2ccc(C(F)(F)F)cc12 | 700 | 2200
12 | CCn1c2c(c3cc(Br)ccc31)CC(=O)Nc1ccccc1-2 | 23000 | 
13 | Nc1ccc2[nH]c3c(c2c1)CC(=O)Nc1ccccc1-3 | 20000 | 30000
14 | CC(=O)OCn1c2c(c3cc(Br)ccc31)CC(=O)Nc1ccccc1-2 | 1400 | 

Source: ChEMBL document CHEMBL1148295, “Evaluation and comparison of 3D-QSAR CoMSIA models for CDK1, CDK5, and GSK-3 inhibition by paullones” (J Med Chem, 2004)
